# Reference: US10548901B2, “Meloxicam for the treatment of respiratory diseases in pigs” (Boehringer Ingelheim Vetmedica GmbH, priority 2004, dated 2020)
# Key:
# [1] = system: endotoxin-induced respiratory failure; conditions: pigs; cited from earlier work
# [2] = system: Swine Influenza Virus (SIV); format: in vivo, pigs
# [3] = clinical field study; cited from earlier work
# [4] = system: Actinobacillus pleuropneumoniae; conditions: pigs; cited from earlier work
structure (smiles),measurement,setting,value
COc1ccc2c(c1)c(CC(=O)O)c(C)n2C(=O)c1ccc(Cl)cc1 [Indomethacin],experimental endotoxin-induced respiratory failure,[1],alleviated
"Cc1cnc(NC(=O)C2=C(O)c3ccccc3S(=O)(=O)N2C)s1 [meloxicam, 4-hydroxy-2-methyl-N-(5-methyl-2-thiazolyl)-2H-1,2-benzothiazine-3-carboxamide-1,1-dioxide]",mean daily weight gain,"[2]; interval study day 0 to 7, group A, control 257 g",557 g
same,mean daily weight gain,"[2]; interval study day 0 to 14, group B, control 486 g",629 g
same,percentage of lung tissue affected with SIV-related lesions (median value),"[2]; study day 7, meloxicam granules in drinking water, 0.8 mg/kg/day for 7 days, control 23.8%",8.9%
CC(C(=O)O)c1cccc(C(=O)c2ccccc2)c1 (stereo not drawn) [Ketoprofen],"effect on clinical score, relapse, or cure rate",[3],no effect
Cc1c(Nc2ncccc2C(=O)O)cccc1C(F)(F)F [flunixin],effects on lung lesions,[4],no effects

# Where two headings read alike, the source gives them in different places.
